Test results published in PMC4336329 (PLoS ONE, 2015).
Screen size: about 310,000 compounds; about 14,000 (4.5%) showed an effect of 50% or more. The effect is printed as a negative number. This is one part of the list.

Molecular target: human ether-à-go-go-related gene (hERG) potassium channel (human, UniProt Q12809)
Assay: primary screen, population patch clamp on CHO cells stably expressing hERG
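Note: peak tail current of the secondary pulse compared with the same well before compound.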

Chain of human ether-à-go-go-related gene (hERG) potassium channel (Q12809 whole entry, looked up): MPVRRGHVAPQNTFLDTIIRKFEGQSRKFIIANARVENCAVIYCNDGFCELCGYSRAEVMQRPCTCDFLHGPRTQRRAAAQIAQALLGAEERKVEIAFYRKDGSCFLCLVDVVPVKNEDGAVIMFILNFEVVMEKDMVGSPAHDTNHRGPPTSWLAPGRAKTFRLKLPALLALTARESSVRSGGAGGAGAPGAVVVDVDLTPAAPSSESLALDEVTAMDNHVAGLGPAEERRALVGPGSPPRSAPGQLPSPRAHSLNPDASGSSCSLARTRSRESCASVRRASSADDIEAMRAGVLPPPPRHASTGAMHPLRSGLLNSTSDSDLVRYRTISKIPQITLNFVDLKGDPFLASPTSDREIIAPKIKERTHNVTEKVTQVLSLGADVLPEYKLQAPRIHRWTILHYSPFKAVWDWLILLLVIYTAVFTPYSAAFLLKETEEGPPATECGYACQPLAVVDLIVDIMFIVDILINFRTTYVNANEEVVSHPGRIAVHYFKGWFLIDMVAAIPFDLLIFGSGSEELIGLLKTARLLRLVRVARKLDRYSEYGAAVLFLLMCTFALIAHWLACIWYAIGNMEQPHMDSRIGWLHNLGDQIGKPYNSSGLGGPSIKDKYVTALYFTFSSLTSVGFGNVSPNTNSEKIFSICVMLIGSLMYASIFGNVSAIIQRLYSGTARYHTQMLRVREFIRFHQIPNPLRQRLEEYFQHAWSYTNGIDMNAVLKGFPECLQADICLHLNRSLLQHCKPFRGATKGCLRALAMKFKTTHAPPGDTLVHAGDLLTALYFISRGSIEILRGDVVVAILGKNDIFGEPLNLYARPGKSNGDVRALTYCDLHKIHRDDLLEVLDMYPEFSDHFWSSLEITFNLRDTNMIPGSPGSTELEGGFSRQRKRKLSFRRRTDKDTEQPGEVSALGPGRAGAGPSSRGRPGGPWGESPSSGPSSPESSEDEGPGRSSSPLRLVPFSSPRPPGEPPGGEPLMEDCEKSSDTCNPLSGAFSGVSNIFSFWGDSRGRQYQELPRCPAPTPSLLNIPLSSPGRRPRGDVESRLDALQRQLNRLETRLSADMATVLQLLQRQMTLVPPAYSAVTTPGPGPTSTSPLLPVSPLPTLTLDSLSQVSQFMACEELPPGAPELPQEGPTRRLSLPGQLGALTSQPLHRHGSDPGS

SMILES	hERG current change (%, negative = inhibition) at 10uM
CC1(C)CC(NS(=O)(=O)c2ccc(Cl)cc2)CC(C)(C)N1	9.34%
O=C(CCOc1ccccc1)Nc1cccc(S(=O)(=O)Nc2ccccc2Cl)c1	-10.2%
O=C(O)/C=C/C(=O)N1CCN(c2ccc(F)cc2)CC1	7.05%
COc1ccc(/C=N/NC(=O)CSCc2ccc([N+](=O)[O-])cc2)cc1OC	-45.6%
Cc1ccc2c(c1)N(S(=O)(=O)c1ccc(F)cc1)C(C(C)(C)C)CO2 (stereo not drawn)	11.4%
Cn1c(SCC(=O)Nc2ccc(C(N)=O)cc2)nc2c(c1=O)SCC2	13.7%
Oc1cc2c(cc1O)[C@H]1c3ccc(O)c(O)c3OC[C@@]1(O)C2	11%
Cc1ccc(O)c(N=NC2=C(O)CC(C)(C)CC2=O)c1	3.16%
COc1c2c(c(C)c3c1C(=O)OC3)O[C@@]1(C)CC[C@@]3(O)C(C)(C)OC(=O)CC[C@]3(C)[C@H]1C2	-1.16%
CC(=O)OCC(=O)Nc1c(C)cccc1C	4.71%
CC(C)=C1SC(N2CCN(c3cccc(C)c3)CC2)=NC1=O	-18.1%
Cc1ccc(S(=O)(=O)N2CCN(C(=O)CN3C(=O)NC4(CCCCC4)C3=O)CC2)c(C)c1	1.52%
CCOC(=O)[C@@H]1[C@H]2COc3ccccc3[C@@H]2N2C(=O)N(c3ccccc3)C(=O)[C@]12C	-12.8%
O=C(/C=C/c1ccccc1Cl)N1CCCN(C(=O)/C=C/c2ccccc2Cl)CC1	-26.1%
COc1ccc(Cl)cc1C(=O)NCc1ccco1	-9.57%
Cc1ccc(/C=N/c2sc3c(c2C#N)CCC3)o1	2.41%
CC(=O)N1CCCN(Cc2nc(C3(c4ccc(C)cc4)CCCC3)no2)CC1	22.3%
O=C(COC(=O)c1ccc(O)cc1)Nc1cccc(S(=O)(=O)N2CCCCC2)c1	-32.9%
COc1ccc(N(C)S(=O)(=O)c2cccc3cccnc23)c(OC)c1	-1.31%
COc1ccc(N2CCN(C(=O)CN3C(=O)NC4(CCCc5ccccc54)C3=O)CC2)cc1 (stereo not drawn)	-7.06%
C/C(=N\Nc1nccnc1Cl)c1ccc([N+](=O)[O-])cc1	-4.09%

SMILES	hERG current change (%, negative = inhibition) at 10uM
CCn1c(N2CCN(C(=S)NCCc3ccccc3)CC2)nc2ccccc21	-50%
COc1ccccc1-n1c(SCC(=O)N2CCCCC2)nc(O)c(Cc2ccccc2)c1=O	9.43%
O=c1c(Br)c(N2CCOCC2)cnn1-c1ccccc1	30.3%
O=C(CSc1nnnn1Cc1ccccc1)Nc1ccc2c(c1)OCO2	2.53%
CCCCn1c(N)c(N(CC(C)C)C(=O)c2ccc(-n3c(C)ccc3C)cc2)c(=O)[nH]c1=O	14.4%
CN(C)c1nc(Oc2ccc(=O)[nH]n2)nc(N2CCOCC2)n1	4.14%
CCN(CC)c1ccc(C(=O)NNC(=O)c2ccc3c(=O)n4c(nc3c2)CCC4)cc1	5.8%
Cc1ccc(C2C(C(=O)O)c3ccccc3C(=O)N2C)o1 (stereo not drawn)	7.24%
CCc1c(C)c2ccc(OCC(=O)NCC3CCC(C(=O)O)CC3)cc2oc1=O (stereo not drawn)	8.26%
COCCn1c(SCC(=O)Nc2cccc(S(N)(=O)=O)c2)nc2ccccc21	6.48%
COC(=O)c1ccc(COC(=O)CCc2nc(-c3ccccc3)c(-c3ccccc3)o2)cc1	-20.9%
COc1ccc(-c2[nH]ncc2CN2CCN(Cc3cccs3)CC2)cc1F	-31.2%
Cc1c(C#N)c(NC(=O)CCl)n(Cc2ccc(F)cc2)c1C	12.8%
CN1CCN(C(=O)c2cc3nc(-c4ccc(Cl)cc4)cc(C(F)(F)F)n3n2)CC1	-5.1%
CC(=O)N1CCSc2ccc(S(=O)(=O)N3CCC(C)CC3)cc21	-13.7%
COc1ccccc1OCC(=O)OC/C(O)=C(\C#N)c1nc2ccccc2[nH]1	16.9%
COc1ccc(NS(=O)(=O)c2ccc(C)c(NC(=O)C3CCCO3)c2)cc1 (stereo not drawn)	-22.5%
COc1cccc(C2=NN(C(=O)CCCC(=O)O)C(c3cccs3)C2)c1 (stereo not drawn)	15%
O=C(O)c1ccc(S(=O)(=O)Nc2ccc3c(c2)OCCO3)cc1	-0.656%
O=C(Nc1ccc(NC(=O)c2ccco2)nc1)c1ccco1	18%
CCCCN(C)C(=O)C1CCCN(S(=O)(=O)c2ccc3c(c2)CC(C)N3C(=O)C2CC2)C1 (stereo not drawn)	-26.8%
